# Reference: PubChem BioAssay AID624417 (National Center for Advancing Translational Sciences (NCATS), 2012)
# The whole screen tested about 410,000 compounds, of which about 6,400 (1.6%) were called active. The shares of active, inactive and inconclusive entries below differ from those in the screen. Calls come from the whole dose curve; as a rule, active = well fitted inhibition curve with a large enough effect; inconclusive = small, poorly fitted or top-dose-only effect; inactive = no such curve, though single readings can be large or run the other way. Potencies of inconclusive entries are left out as doubtful fits.
# Biological target: Glucagon-like peptide 1 receptor (Homo sapiens) (UniProt P43220)
# Test: qHTS of GLP-1 Receptor Inverse Agonists (Inhibition Mode); note: nearly all actives have a fitted effect of over 55% in size
# Settings: HEK293 GLP-1R CRE-luciferase, luminescence, 24 h, GLP-1R form is constitutively active; activity change, negative = inhibition: at 38.3 µM (top of the series) unless noted
# Procedure, shortened: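 Stable HEK293 clone (constitutively active GLP-1R + cAMP-response luciferase); 200 cells/uL plated, 12 h pre-culture, compound 24 hr, 37 deg C/5% CO2; detection reagent 12 min RT; luminescence.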
# % is set by controls: 0 for no effect and ±100 for the full control effect; potency is the fitted concentration of half-maximal effect; tags give direction and shape of the fitted curve.
# Sequence of UniProt P43220 (P43220 whole entry, looked up): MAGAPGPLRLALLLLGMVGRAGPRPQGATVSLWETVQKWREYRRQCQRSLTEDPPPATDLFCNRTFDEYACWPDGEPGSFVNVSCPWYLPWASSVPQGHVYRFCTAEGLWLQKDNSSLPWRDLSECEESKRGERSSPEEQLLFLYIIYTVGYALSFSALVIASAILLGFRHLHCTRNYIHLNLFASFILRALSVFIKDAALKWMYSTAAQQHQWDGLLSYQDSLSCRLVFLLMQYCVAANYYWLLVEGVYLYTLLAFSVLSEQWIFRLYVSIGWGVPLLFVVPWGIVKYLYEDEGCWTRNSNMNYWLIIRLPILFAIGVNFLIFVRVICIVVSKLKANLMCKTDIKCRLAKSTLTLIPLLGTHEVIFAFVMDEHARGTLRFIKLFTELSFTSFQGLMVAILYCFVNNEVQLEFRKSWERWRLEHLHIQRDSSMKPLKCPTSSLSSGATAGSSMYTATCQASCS
SMILES,"activity change, negative = inhibition",Potency
CCOC(=O)CN(C)Cc1cn[nH]c1-c1ccc2cc(OC)ccc2c1,inactive: -1.39%,
COc1ccc2oc(C(=O)Nc3nnc(C)s3)c(C)c2c1,inactive: -18%,
COc1ccc(NC(=O)c2cc3c(=O)n(Cc4cccnc4)ccc3nc2C)c(OC)c1,inactive: 11.4%,
CCCNC(=O)C1(C)CCN(Cc2csc(-c3ccc(Cl)cc3)n2)C1 (stereo unspecified),,"inconclusive [inhibitor, single point]"
COc1ccccc1-c1nnc(SCC(=O)Nc2nc(-c3ccccc3)cs2)n1C,,"inconclusive [inhibitor, partial curve, poor fit]"
CCc1nc2c(OCc3ccc4c(c3)OCO4)cccn2c1N(C=O)Cc1ccc(OC)cc1,,"inconclusive [inhibitor, single point]"
Cc1cc(Nc2ccc(Cl)cc2)n(-c2cccc(Cl)c2)n1,,active: 7.94 µM
CCC(C(=O)O)n1cnc2scc(-c3ccc(C)c(C)c3)c2c1=O (stereo unspecified),,"inconclusive [inhibitor, single point]"
CC[n+]1c(C)sc2cc(OC)ccc21,,"inconclusive [inhibitor, partial curve, poor fit]"
COc1ccc(-c2nn(-c3ccccc3)cc2C(=O)OCC(=O)c2ccc(C)c([N+](=O)[O-])c2)cc1,,"inconclusive [inhibitor, partial curve, poor fit]"
COc1ccc(OCC(=O)NC(Cc2c[nH]c3ccccc23)C(=O)O)cc1 (stereo unspecified),inactive: 2.04%,
COc1cccc(/C=C2\SC(=S)N(CC3CCCO3)C2=O)c1 (stereo unspecified),,"inconclusive [inhibitor, partial curve, poor fit]"
Cc1c(Cl)c([N+](=O)[O-])nn1CC(=O)NC(C)C1CC2CCC1C2 (stereo unspecified),,"inconclusive [inhibitor, partial curve, poor fit]"
CCCCNCCOCCOc1ccc(C)cc1[N+](=O)[O-],inactive: 0%,
O=C(CN1CCN(S(=O)(=O)c2ccc(F)cc2)CC1)Nc1ccc2c(c1)OCO2,,"inconclusive [inhibitor, partial curve, poor fit]"
O=C(CCC1CCCCC1)Nc1ccccc1-c1ccccc1,,"inconclusive [inhibitor, single point]"
Cc1cccc(NC(=S)N(CCCN2CCCC2)Cc2cccn2Cc2ccc(Cl)cc2)c1,,"inconclusive [inhibitor, partial curve, poor fit]"
O=C(COc1ccc(S(=O)(=O)NC2CCCC2)cc1)N1CCCCC1,inactive: 4.27%,
O=C(CSc1ncnc2c1nnn2Cc1ccccc1F)N1CCN(c2ccccc2)CC1,,"inconclusive [inhibitor, full curve, poor fit]"
Cc1cccc(CNC(=O)c2sc(=O)n(Cc3ccccc3C)c2C)c1,,"inconclusive [inhibitor, partial curve, poor fit]"
CCOC(=O)c1cnc2c(OC)cccc2c1N1CC(C)CC(C)C1 (stereo unspecified),,"inconclusive [inhibitor, single point]"
CCCNC(=O)CN1C(=O)NC(c2ccccc2)(c2ccccc2)C1=O,,"inconclusive [inhibitor, partial curve, poor fit]"

SMILES,"activity change, negative = inhibition",Potency
COc1ccc(C(=O)OCC(=O)NCc2ccco2)cc1S(=O)(=O)N1CCN(c2cccc(Cl)c2)CC1,,"inconclusive [inhibitor, single point]"
Cc1ccccc1C(=O)Nc1ccnn1C1CCN(CCCc2ccccc2)CC1,,"inconclusive [inhibitor, partial curve, poor fit]"
Cn1c(Oc2ccc(Cl)cc2)c(C=O)c2ccccc21,,"inconclusive [inhibitor, partial curve, poor fit]"
Clc1ccc(/C=C/c2nc3ccccc3[nH]2)c(Cl)c1,,"inconclusive [inhibitor, single point]"
O=C(CC1Sc2ccccc2NC1=O)NNc1ccc(F)cc1 (stereo unspecified),,"inconclusive [inhibitor, full curve, poor fit]"
COc1ccc(C(=O)NCCOc2cccc(Oc3ccccc3)c2)cc1OC,,"inconclusive [inhibitor, partial curve, poor fit]"
CC(C)C(=O)Nc1nnc(SCc2cc(=O)n3ccccc3n2)s1,inactive: 5.39%,
COc1cccc(NC(=O)COC(=O)c2c(-c3ccccc3)noc2C)c1,inactive: 0%,
COc1ccc(-c2noc(CN(C(=O)c3c(-c4ccccc4Cl)noc3C)C(C)C)n2)cc1,,"inconclusive [inhibitor, partial curve, poor fit]"
CCOC(=O)C1CCCN(CCC(C)c2ccccc2)C1 (stereo unspecified),inactive: -9.88%,
CCc1ccccc1N(C(=O)CCC(=O)Nc1cc(C)on1)C(C(=O)NC1CCCC1)c1ccco1 (stereo unspecified),,"inconclusive [inhibitor, partial curve, poor fit]"
CN(C)CCN[C@H]1CCC2C3CC=C4C[C@@H](O)CC[C@]4(C)C3CC[C@@]21C (stereo partly specified),,"inconclusive [inhibitor, partial curve, poor fit]"
O=C(CNc1ccccc1Cl)Nc1cc(S(=O)(=O)N2CCOCC2)ccc1Cl,,"inconclusive [inhibitor, partial curve]"
CC1=C(C(=O)Nc2cccc([N+](=O)[O-])c2)C2(CCC(C)CC2)OC1=O (stereo unspecified),,"inconclusive [inhibitor, partial curve, poor fit]"
CCOc1ccc(OCC)c(NC(=O)CNS(=O)(=O)c2cccs2)c1,,"inconclusive [inhibitor, single point]"
COc1ccc(N2CCN(S(=O)(=O)c3ccc4c(c3)NC(=O)C(C)S4)CC2)cc1 (stereo unspecified),,"inconclusive [inhibitor, single point]"
COc1cc(NC(=O)C2CC3CCC2C3)c(OC)cc1Cl (stereo unspecified),,"inconclusive [inhibitor, partial curve, poor fit]"
Cc1cc(C)c2nc(N(CCN(C)C)C(=O)/C=C/c3cccs3)sc2c1,inactive: 5.14%,
O=C(NCCc1c[nH]c2ccccc12)C1CCN(Cc2ccc(Br)cc2)CC1,,"inconclusive [inhibitor, single point]"
c1ccc(-c2cnc(-c3cccnc3)o2)cc1,inactive: 131%,
CCCOC(=O)c1ccc(NC(=O)c2ccccc2[N+](=O)[O-])cc1,,"inconclusive [inhibitor, single point]"
Clc1cccc(-n2ncc3c(NCCCN4CCOCC4)ncnc32)c1,,"inconclusive [inhibitor, single point]"

SMILES,"activity change, negative = inhibition",Potency
Cc1cccc(Nc2nc3c(S(=O)(=O)c4ccc(Br)cc4)nnn3c3ccsc23)c1C,inactive: 12.4%,
CCN(CC)CC(=O)Nc1nc(-c2ccc(Cl)cc2)cs1,,"inconclusive [inhibitor, partial curve]"
Cc1cc(C)c2oc(-c3cccc(NC(=O)COc4ccccc4Cl)c3C)nc2c1,inactive: -4.31%,
CCOc1ccccc1C(=O)NCc1ccc2c(c1)CCN2C(=O)c1ccccc1,inactive: 21%,
O=C(CCC(=O)Nc1ccc(F)cc1)N/N=C/c1cccc(Br)c1,,"inconclusive [inhibitor, single point]"
O=[N+]([O-])c1ccccc1/C=C/C=N/n1c(-c2ccccc2)n[nH]c1=S,inactive: 0%,
CCc1ccc(N/C(SCc2ccccc2C)=C(/C#N)C(=O)NCc2ccco2)cc1,,"inconclusive [inhibitor, single point]"
N=c1c2c3c(sc2ncn1N)CCC3,inactive: -9.82%,
Cc1ccccc1CC1(CO)CCCN(Cc2nc(-c3cccs3)oc2C)C1 (stereo unspecified),,"inconclusive [inhibitor, partial curve, poor fit]"
COc1cccc(N=c2oc3ccc(OC)cc3cc2-c2nc3ccccc3[nH]2)c1,inactive: 0%,
Cc1onc(-c2ccccc2Cl)c1C(=O)OCC(=O)N1CCN(c2ccccc2)CC1,,"inconclusive [inhibitor, single point]"
O=C(NCCCc1ccccc1)c1cc([N+](=O)[O-])ccc1Cl,,"inconclusive [inhibitor, single point]"
c1ccc(Cn2nnnc2C(c2ccccn2)N2CCN(c3ccccc3)CC2)cc1 (stereo unspecified),,"inconclusive [inhibitor, partial curve, poor fit]"
Cc1ccc(NC(=O)NC(=O)CN2CCCC2c2ccc3c(c2)OCCO3)cc1C (stereo unspecified),,"inconclusive [inhibitor, single point]"
COc1ccc(Nc2nc(-c3cccs3)nc3ccccc23)cc1,,"inconclusive [inhibitor, partial curve, poor fit]"
COc1cc(C(=O)Nc2cc(-c3ccccc3)[nH]n2)cc(OC)c1OC,,"inconclusive [inhibitor, partial curve, poor fit]"
CC(=O)c1sc(=S)n(Cc2ccccc2)c1C,,"inconclusive [inhibitor, partial curve]"
COc1ccc(C(=O)NC(C)c2nnc(SCC(=O)NC3CCCC3)n2C)cc1 (stereo unspecified),inactive: -12.9%,
CCOc1cccc(C(=O)N(Cc2ccc(F)cc2)Cc2ccco2)c1,,"inconclusive [inhibitor, single point]"
O=C(CSc1nc2ccccc2c(=O)n1CCCN1CCOCC1)Nc1cccc(S(=O)(=O)N2CCCCCC2)c1,,"inconclusive [inhibitor, single point]"
COc1ccc(-c2nc3cc(C)c(Br)c(C)n3c2Cc2ccccc2)cc1OC,,"inconclusive [inhibitor, single point]"
COc1ccc(Cl)cc1NC(=O)C1CCN(S(=O)(=O)c2ccc(F)cc2)CC1,,"inconclusive [inhibitor, single point]"
